Source: publication PMC6726739
No constants are given. Whether binding was seen depends on the method and setting. For part of these data: Binding seen in cells or lysates may run through a third protein. Some binding calls cover weakened binding; strength is not graded here. Sequences can lack the tags named with a protein.

T1: HopY1 in pGBKT-7 (Pseudomonas syringae pv. tomato DC3000) (UniProt Q88BF6)
T1 sequence: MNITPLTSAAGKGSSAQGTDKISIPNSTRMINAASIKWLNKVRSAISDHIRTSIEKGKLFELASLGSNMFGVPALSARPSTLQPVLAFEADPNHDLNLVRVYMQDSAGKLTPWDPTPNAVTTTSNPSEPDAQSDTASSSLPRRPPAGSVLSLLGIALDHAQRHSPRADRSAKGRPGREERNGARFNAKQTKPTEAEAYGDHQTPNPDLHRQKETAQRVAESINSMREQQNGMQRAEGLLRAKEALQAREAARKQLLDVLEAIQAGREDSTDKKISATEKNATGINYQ

T2: HopK1 in pGBKT-7 (Pseudomonas syringae pv. tomato DC3000) (UniProt Q88BH0)
T2 sequence: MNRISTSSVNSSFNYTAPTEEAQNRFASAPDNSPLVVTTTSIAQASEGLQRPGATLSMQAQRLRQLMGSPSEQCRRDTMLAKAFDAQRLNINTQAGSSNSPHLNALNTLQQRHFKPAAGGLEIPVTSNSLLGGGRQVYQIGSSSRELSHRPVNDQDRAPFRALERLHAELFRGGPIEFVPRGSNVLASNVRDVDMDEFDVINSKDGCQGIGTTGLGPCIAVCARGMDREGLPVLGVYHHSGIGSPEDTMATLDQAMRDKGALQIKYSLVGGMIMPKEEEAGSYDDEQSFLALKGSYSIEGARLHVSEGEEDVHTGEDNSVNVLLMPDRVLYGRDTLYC


How the values were obtained:
[1] = biological target: GST-AvrPtoB_(1-410) (Pseudomonas syringae pv. tomato DC3000) (UniProt Q8RSY1); test: pull-down; equimolar GST fusions from E. coli incubated with extracts of N. benthamiana leaves expressing EXO70B1-GFP, 4 °C, 4 h; GST binding beads 2 h; three washes with GST washing buffer (1.4 M NaCl, pH 7.3, 5 mM DTT); anti-GFP blot; only the target purified
[2] = biological target: GST-AvrPtoB^F479A (Pseudomonas syringae pv. tomato DC3000) (UniProt Q8RSY1); test: as above
[3] = biological target: AvrPtoB_(1-387) fused to the Gal4 DNA binding domain (Pseudomonas syringae pv. tomato DC3000) (UniProt Q8RSY1); test: two-hybrid; Matchmaker GAL4 Two-Hybrid System 3, yeast AH109; effectors and AvrPtoB forms in pGBKT-7 (BD), plant proteins in pGADT-7 (AD); growth on SD-Trp/-Leu/-His/-Ade, 5 days
[4] = biological target: AvrPtoB_(1-410) fused to the Gal4 DNA binding domain (Pseudomonas syringae pv. tomato DC3000) (UniProt Q8RSY1); test: as above
[5] = biological target: HopO1-1 in pGBKT-7 (Pseudomonas syringae pv. tomato DC3000) (UniProt Q88BP8); test: as above
[6] = biological target: T1, HopY1 in pGBKT-7 (Pseudomonas syringae pv. tomato DC3000); test: as above
[7] = biological target: AvrPtoB_(1-205) fused to the Gal4 DNA binding domain (Pseudomonas syringae pv. tomato DC3000) (UniProt Q8RSY1); test: as above
[8] = biological target: HopH1 in pGBKT-7 (Pseudomonas syringae pv. tomato DC3000) (UniProt Q88A09); test: as above
[9] = biological target: T2, HopK1 in pGBKT-7 (Pseudomonas syringae pv. tomato DC3000); test: as above
[10] = biological target: AvrPtoB_(1-307) fused to the Gal4 DNA binding domain (Pseudomonas syringae pv. tomato DC3000) (UniProt Q8RSY1); test: as above
[11] = biological target: AvrPtoB^F479A fused to the Gal4 DNA binding domain (Pseudomonas syringae pv. tomato DC3000) (UniProt Q8RSY1); test: as above
[12] = biological target: AvrPtoB_(308-553) fused to the Gal4 DNA binding domain (Pseudomonas syringae pv. tomato DC3000) (UniProt Q8RSY1); test: as above

Row | Binder | binding [1] | binding [2] | binding [3] | binding [4] | binding [5] | binding [6] | binding [7] | binding [8] | binding [9] | binding [10] | binding [11] | binding [12]
1 | EXO70B1-GFP (protein, UniProt Q9FGH9 1-624) MAENGEEKLLAVARHIAKTLGHNESMADDILQIFSNFDGRFSREKLAEGQAGEDGSGVATLERALNSIDGQISRFVAADQPIWADPADSAAFLDTIDELVAIIREWSPMASEKPIGICLTRADDMMQQAMFRIEEEFRSLMERGAESFGLNPQGDAGAMNHRFDSEEEEDDDRDFNNGDDIQIPVAQPLTDYDLIIDALPSATINDLHEMAKRMLGAGFGKACSHVYSSCRREFLEESMSRLGLQKLSIEEVHKMPWQELEDEIDRWIKAANVALRILFPSERRLCDRVFFGFSSAADLSFMEVCRGSTIQLLNFADAIAIGSRSPERLFKVLDVFETMRDLMPEFESVFSDQFCSVLRNEAVTIWKRLGEAIRGIFMELENLIRRDPAKAAVPGGGLHPITRYVMNYLRAACRSRQTLEQVFEESNGVPSKDSTLLTVQMSWIMELLESNLEVKSKVYKDPALCYVFLMNNGRYIVQKVKDGDLGLLLGDDWIRKHNVKVKQYHMNYQRSSWNKMLGLLKVDNTAAGMNGLGKTMKEKLKQFNIQFDEICKVHSTWVVFDEQLKEELKISLARLLVPAYGSFIGRFQNLGDIGKNADKYIKYGVEDIEARINELFKGTTTGRK | binds | binds |  |  |  |  |  |  |  |  |  | 
2 | EXO70B1, full length, fused to the Gal4 transactivation domain (protein, UniProt Q9FGH9 1-624) MAENGEEKLLAVARHIAKTLGHNESMADDILQIFSNFDGRFSREKLAEGQAGEDGSGVATLERALNSIDGQISRFVAADQPIWADPADSAAFLDTIDELVAIIREWSPMASEKPIGICLTRADDMMQQAMFRIEEEFRSLMERGAESFGLNPQGDAGAMNHRFDSEEEEDDDRDFNNGDDIQIPVAQPLTDYDLIIDALPSATINDLHEMAKRMLGAGFGKACSHVYSSCRREFLEESMSRLGLQKLSIEEVHKMPWQELEDEIDRWIKAANVALRILFPSERRLCDRVFFGFSSAADLSFMEVCRGSTIQLLNFADAIAIGSRSPERLFKVLDVFETMRDLMPEFESVFSDQFCSVLRNEAVTIWKRLGEAIRGIFMELENLIRRDPAKAAVPGGGLHPITRYVMNYLRAACRSRQTLEQVFEESNGVPSKDSTLLTVQMSWIMELLESNLEVKSKVYKDPALCYVFLMNNGRYIVQKVKDGDLGLLLGDDWIRKHNVKVKQYHMNYQRSSWNKMLGLLKVDNTAAGMNGLGKTMKEKLKQFNIQFDEICKVHSTWVVFDEQLKEELKISLARLLVPAYGSFIGRFQNLGDIGKNADKYIKYGVEDIEARINELFKGTTTGRK |  |  | binds | binds | binds | binds | no binding | binds | binds | binds | binds | no binding
